Measured values from publication PMC10668032.
This is one part of the list. At the low end of the ranking the order means little.

Molecular target: SIX1-Q177R homeodomain (UniProt Q15475)
Test: universal protein binding microarray
Details: Universal all-10-mer PBM (8x60K, AMADID 030236), 300 nM GST-tagged protein, Alexa Fluor 488 anti-GST; buffer, salt, pH and temperature not stated; high values mean tight binding; most listed sequences are background and not binding sites; double strand, one strand shown

Row | Sequence | binding signal
1 | AGGATTTA | -0.0376 E-score
2 | AATACAGG | -0.221 E-score
3 | AGGTCGAA | -0.0118 E-score
4 | CTAGGCTA | -0.157 E-score
5 | ATAAGGTG | 0.217 E-score
6 | AATTTTCG | -0.309 E-score
7 | GGAAACGA | -0.178 E-score
8 | CGTGCGCA | -0.101 E-score
9 | AGTTCGAA | 0.156 E-score
10 | CACGTCTA | 0.137 E-score
11 | GCCTTGGA | -0.0916 E-score
12 | AATGGATA | 0.0833 E-score
13 | CGAGTTCA | -0.0101 E-score
14 | GCGACCTA | -0.0335 E-score
15 | GGTATGCA | 0.144 E-score
16 | ATCGAGTG | 0.172 E-score
17 | CTCTCTCC | -0.0479 E-score
18 | ATCTGCGC | 0.0383 E-score
19 | CCCAGGAA | -0.00647 E-score
20 | AAGGTATG | -0.014 E-score
21 | AGCAGCCC | -0.00822 E-score
22 | CGGCTGCA | -0.0593 E-score
23 | CGACTAAC | 0.192 E-score
24 | ACGATAAC | 0.00713 E-score
25 | ATAGATTG | -0.12 E-score

Row | Sequence | binding signal
26 | AGGCAATC | 0.0116 E-score
27 | AGATCACG | -0.104 E-score
28 | GCGCGATA | -0.0906 E-score
29 | AGACTGCA | -0.151 E-score
30 | ACCCCGCA | 0.259 E-score
31 | CAGGTCAG | -0.149 E-score
32 | TACATTCA | -0.301 E-score
33 | CAGTTAGC | -0.216 E-score
34 | AAGCTAGT | -0.162 E-score
35 | GCGCTTTA | -0.295 E-score
36 | GGAGCGGA | -0.124 E-score
37 | TGGTTTAA | 0.0547 E-score
38 | CAACTCAG | -0.0605 E-score
39 | AGCCGCAC | -0.17 E-score
40 | ATTGACCC | 0.167 E-score
41 | CCTCGTAA | 0.0299 E-score
42 | TATTATAA | -0.0644 E-score
43 | ACTAGAGA | -0.0743 E-score
44 | ATTGCATG | -0.0533 E-score
45 | CAACATTA | -0.105 E-score
46 | ATGCGATG | -0.118 E-score
47 | CGGCAGTA | -0.151 E-score
48 | CAGGTTCC | -0.0489 E-score
49 | CCGAGCTA | 0.0115 E-score
50 | GCGAGAAC | -0.0828 E-score

Row | Sequence | binding signal
51 | CGAAGTCC | -0.17 E-score
52 | AAGGATGG | 0.0751 E-score
53 | GAGGATCC | 0.139 E-score
54 | ACAGGTCC | -0.0608 E-score
55 | ATCTTCCA | 0.0232 E-score
56 | CTACCTAC | 0.0425 E-score
57 | GAACGTAA | -0.0777 E-score
58 | ACTGGAAC | 0.0784 E-score
59 | ACTAACAG | -0.019 E-score
60 | CCACAGAA | 0.135 E-score
61 | CCTCAGCC | -0.265 E-score
62 | GCCCAACC | -0.051 E-score
63 | GAAACTCC | -0.0671 E-score
64 | GGGTATGA | 0.186 E-score
65 | AGATAGCC | -0.104 E-score
66 | ACTAGAGG | 0.044 E-score
67 | ACGAACTA | -0.0737 E-score
68 | ACGCCCGT | 0.111 E-score
69 | AACACAGA | 0.15 E-score
70 | CAATACTC | 0.0402 E-score
71 | CTCGGGGC | -0.0523 E-score
72 | GGTACTAC | 0.0689 E-score
73 | AATGGAAG | -0.127 E-score
74 | CTGAATCA | -0.118 E-score
75 | GAGTGGTA | -0.0278 E-score

Row | Sequence | binding signal
76 | ACTGTTAC | 0.086 E-score
77 | GCCGGAGC | -0.0715 E-score
78 | AAGGAAGC | -0.262 E-score
79 | GACGAGAA | -0.282 E-score
80 | ATGGTCTA | -0.0851 E-score
81 | CTTTATAA | -0.1 E-score
82 | GAGAGGAA | 0.0986 E-score
83 | CAGGATGA | -0.0525 E-score
84 | TATGAATA | 0.00244 E-score
85 | CAACATTG | -0.0338 E-score
86 | CCAGCTGA | -0.0521 E-score
87 | GCCCCCGA | -0.0372 E-score
88 | AGAAGTCA | -0.135 E-score
89 | GGCCCCGA | -0.0711 E-score
90 | ACTTAACG | -0.11 E-score
91 | CGATAAAC | -0.112 E-score
92 | GCAACCAA | -0.0222 E-score
93 | AAACTTCG | -0.246 E-score
94 | CCTCGGCA | 0.0366 E-score
95 | GGTACTCA | 0.0462 E-score
96 | CACAAATG | -0.173 E-score
97 | CCATACGG | -0.0765 E-score
98 | GAATCGTC | -0.0814 E-score
99 | AGGCGCGA | -0.176 E-score
100 | ATTGGACG | -0.304 E-score

Row | Sequence | binding signal
101 | TCACCCAA | 0.0387 E-score
102 | AGACTAAT | -0.126 E-score
103 | GGATTAGA | -0.0263 E-score
104 | GTCACTGA | 0.0983 E-score
105 | AAGATCGC | -0.0229 E-score
106 | ATAGCGAC | 0.211 E-score
107 | CCGGTGCG | 0.179 E-score
108 | GGTTTCGA | 0.0098 E-score
109 | AAGGTGAA | 0.0656 E-score
110 | AGTAGGGG | 0.196 E-score
111 | CTTCCCAA | -0.176 E-score
112 | GGACGTAA | -0.0723 E-score
113 | GTGCGGGA | 0.146 E-score
114 | TAGTTAAA | -0.042 E-score
115 | CTCCCTTA | -0.0609 E-score
116 | CCGCATAG | 0.147 E-score
117 | AGTATTAA | -0.00688 E-score
118 | CTGTCATC | -0.096 E-score
119 | AACTCCGG | 0.161 E-score
120 | ACCGGTTA | 0.0294 E-score
121 | ACTCTTAA | -0.062 E-score
122 | AGTTAAGC | -0.0327 E-score
123 | AGTCGCCG | 0.00185 E-score
124 | CTGGGAGA | -0.164 E-score
125 | AGAGTTCC | -0.0111 E-score

Row | Sequence | binding signal
126 | TCTCTAAA | -0.0301 E-score
127 | CCTGTGTC | 0.229 E-score
128 | CGCCGCTC | -0.0667 E-score
129 | TCACCAAA | -0.107 E-score
130 | ACAAAAAA | 0.00886 E-score
131 | GCAGTACA | 0.11 E-score
132 | GGCCAACC | -0.104 E-score
133 | CGCTCGGA | 0.033 E-score
134 | CATAGAAC | 0.00632 E-score
135 | AACTGCAG | -0.12 E-score
136 | ACCCCTTG | 0.237 E-score
137 | GGGTTTTA | 0.163 E-score
138 | CTGCAAAG | -0.252 E-score
139 | ATACGAGA | -0.152 E-score
140 | GTACGCAA | -0.037 E-score
141 | ATCCCATC | 0.0454 E-score
142 | ATCGATCC | 0.0612 E-score
143 | GAGAGCAA | -0.245 E-score
144 | CCTTATGC | -0.143 E-score
145 | CGCGCCTA | -0.144 E-score
146 | ACGATCGG | -0.00809 E-score
147 | CGTTCTAA | -0.0713 E-score
148 | AGACATGG | -0.132 E-score
149 | CATAGCCC | -0.207 E-score
150 | CACGCCAG | 0.178 E-score

Row | Sequence | binding signal
151 | CATGCCTC | -0.243 E-score
152 | ATTTCGTA | -0.131 E-score
153 | CGAGGAGC | -0.0561 E-score
154 | AAATACTT | -0.223 E-score
155 | ACACCCGT | 0.471 E-score
156 | CGGTTCTC | -0.101 E-score
157 | AATGAGGT | -0.173 E-score
158 | TAGCCCAA | -0.173 E-score
159 | AGATTGAT | -0.0886 E-score
160 | ATGAATGC | -0.131 E-score
161 | TCTTGGCA | -0.0612 E-score
162 | AGTCCACC | 0.0784 E-score
163 | AACCGGTA | -0.145 E-score
164 | TAACACGA | 0.399 E-score
165 | GCAAATTA | 0.0462 E-score
166 | GATCACAA | -0.0799 E-score
167 | CATTTCTA | -0.24 E-score
168 | CATAGAAA | -0.134 E-score
169 | CTCAGAAG | -0.0727 E-score
170 | AGCCTTGC | -0.24 E-score
171 | AGGGATAG | -0.00179 E-score
172 | CCGATTCC | -0.168 E-score
